Data published in PubChem BioAssay AID686978 (National Center for Advancing Translational Sciences (NCATS), 2013).
Values joined by “and” are separate entries in the source; they are usually repeats but may differ in a detail not shown here. Identical values can stand only once. Out of some 420,000 compounds screened, about 64,000 (15%) were called active. The inconclusive results got no clear call from the source; some entries with a clear call stand among them for comparison. Calls follow the shape of the dose curve; as a rule, active = well fitted inhibition curve with a large enough effect; inconclusive = small, poorly fitted or top-dose-only effect; inactive = flat fitted curve, though single readings scatter. Potencies beside an inconclusive call are fits to weak or partial responses and may not hold up.

Assay: qHTS for Inhibitors of human tyrosyl-DNA phosphodiesterase 1 (TDP1): qHTS in cells in absence of CPT; also: nearly all actives have a fitted effect of over 55% in size
Conditions: DT40 Tdp1-/- hTDP1 cells, no CPT, ATP luminescence, 48 h; activity change, negative = growth inhibition: at 46.2 µM (top of the series) unless noted
Outline: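 Readout: luminescence from CellTiter-Glo after 30 min in the dark at RT. Cells: DT40 Tdp1-/- with stable hTDP1, 400/well. Exposure: compounds alone, ≥48 hr, 37 °C.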
% is scaled to controls: 0 for no effect and ±100 for the full control effect; potency is read from the fitted curve at half-maximal effect; tags tell the direction and shape of the fitted curve.

| Compound | activity change, negative = growth inhibition | Potency |
| --- | --- | --- |
| COC(=O)C(CCCN1C(=O)c2ccccc2C1=O)(NC(C)=O)c1nnn(C)n1 (configuration not stated) | inactive: 7.28% | – |
| O=C(CSc1ncnc2scc(-c3ccc(F)cc3)c12)c1ccc2c(c1)OCCO2 | – | active: 18.4 µM |
| Cc1ccc2[nH]cc(CCCN3C(=O)c4ccccc4C3=O)c2c1 | inactive: -3.71% | – |
| Fc1ccccc1Cn1nnc2c(-n3ccnc3)ncnc21 | inconclusive: -34.1% [inhibitor] | – |
| O=c1[nH]c(=O)c2nnc(N/N=C/c3ccccc3F)nc2[nH]1 | inactive: -2.15% | – |
| CCOCCCNC(=O)c1cc2sc(Cl)cc2n1CC | – | inconclusive: 29.1 µM [inhibitor, partial curve, poor fit] |
| O=C(CSc1ccc(Br)cc1)Nc1ccccc1Oc1ccccc1 | – | inconclusive: 16.4 µM [inhibitor, single point] |
| COc1ccccc1Cn1c(=S)[nH]c2cc(C(=O)N3CCN(C)CC3)ccc2c1=O | inactive: -26.3% | – |
| Cc1ccc(C(=O)Nc2cccc3ccccc23)cc1 | – | inconclusive: 29.1 µM [inhibitor, single point] |
| COC(=O)c1c(-c2cccs2)csc1NC(=O)c1cc(OC)cc(OC)c1 | – | inconclusive: 18.4 µM [inhibitor, single point] |
| NC(=O)[C@H]1CC2(CC(c3cccc(NC(=O)COc4ccc(Cl)cc4)c3)=NO2)CN1C(=O)c1ccccc1C(=O)c1ccccc1 (some centres not stated) | – | active: 18.4 µM |
| COc1ccc(N=Cc2cc(Cc3ccccc3Cl)cc([N+](=O)[O-])c2O)cc1OC | – | active: 25.9 µM |
| CCCc1ccc(OCc2ccc(C(=O)NN)o2)c(OC)c1 | – | active: 23.1 µM |
| Nc1ccc(C#Cc2c(-c3ccsc3)oc3ccc(N4CCOCC4)cc23)cc1 | – | inconclusive: 23.1 µM [inhibitor, single point] |
| COc1ccc(C(=O)CCC(=O)Nc2ccc(N3CCCCC3)cc2)cc1OC | – | inconclusive: 29.1 µM [inhibitor, single point] |
| Cc1ccc(CNC(=O)C(CC(C)C)N2Cc3ccccc3C2=O)cc1 (configuration not stated) | – | inconclusive: 29.1 µM [inhibitor, single point] |
| O=C(NCCSc1c(-c2ccc(Br)cc2)[nH]c2ccccc12)c1ccc(S(=O)(=O)N2CCOCC2)cc1 | – | active: 4.11 µM |
| CCc1nc2c(OCc3ccc(OC)cc3)cccn2c1N(C)C(=O)C(C)C | – | inconclusive: 20.6 µM [inhibitor, single point] |
| O=C1C=CC[C@H](/C=C/C[C@@H](O)C[C@H](O)CCc2ccccc2)O1 | – | inconclusive: 29.1 µM [inhibitor, single point] |
| COc1ccc(-c2ccnc(SCC(=O)c3ccc(Cl)cc3)n2)cc1 | – | inconclusive: 10.3 µM [inhibitor, partial curve, poor fit] |
| CCOc1ccc(C2Nc3ccc4ccccc4c3-c3c2c(=O)oc2ccccc32)cc1 (configuration not stated) | – | inconclusive: 29.1 µM [inhibitor, single point] |
| CCCOc1cccc(OCC(=O)Nc2nc3ccccc3[nH]2)c1 | – | inconclusive: 23.1 µM [inhibitor, single point] |
| CCN(C(=O)COC(=O)c1cc(-c2ccccc2)nc2c1c(C)nn2-c1ccccc1)C1CCS(=O)(=O)C1 (configuration not stated) | – | inconclusive: 23.1 µM [inhibitor, single point] |

| Compound | activity change, negative = growth inhibition | Potency |
| --- | --- | --- |
| CCOC(=O)c1c(NC(=S)NCCc2ccccc2)sc2c1CC(C(C)C)OC2 (configuration not stated) | – | inconclusive: 20.6 µM [inhibitor, single point] |
| O=S(=O)(c1ccc(SCc2ccccc2)nc1)N1CCCC1 | inactive: -27% | – |
| Cc1ccc(C(=O)Nc2nc3ccccc3c(=O)s2)cc1 | – | active: 18.4 µM |
| CCCn1c(NC(=O)c2ccc(F)cc2)nc2ccccc21 | – | inconclusive: 8.2 µM [inhibitor, partial curve] |
| CC1Cc2ccccc2N1C(=O)CN(C)CC(=O)Nc1ccc(F)cc1 (configuration not stated) | – | inconclusive: 25.9 µM [inhibitor, partial curve] |
| O=C(N1CCN(c2ccc(F)cc2)CC1)C1(c2cccs2)CCOCC1 | – | inconclusive: 29.1 µM [inhibitor, single point] |
| CCCN(CCC)C(=O)c1c(NC(=O)CC)sc2c1CCCCC2 | – | inconclusive: 29.1 µM [inhibitor, single point] |
| Cc1ccc(N(CN2CCCC2=O)C(=O)c2ccccc2)cc1 | – | active: 13 µM |
| CS(=O)(=O)NCCCc1ccccc1 | inactive: 2.29% | – |
| Cc1nn(Cc2ccc(Cl)cc2)c(C)c1NC(=O)c1cc(C(C)C)on1 | – | active: 14.6 µM |
| COc1ccc(NC(=O)CSc2nc3ccsc3c(=O)n2CCCCCC(=O)O)cc1 | inactive: -19.9% | – |
| Cc1cc(C)cc(NC(=O)C(Cc2ccccc2)N2Cc3ccccc3C2=O)c1 (configuration not stated) | – | inconclusive: 29.1 µM [inhibitor, single point] |
| COc1cc(C(C)=O)ccc1OCCCN1CCC(c2noc3cc(F)ccc23)CC1 | – | inconclusive: 18.8 µM [inhibitor, single point] |
| CO[C@H]1C=CO[C@@]2(C)Oc3c(C)c(O)c4c(O)c(cc(O)c4c3C2=O)NC(=O)/C(C)=C\C=C/[C@H](C)[C@H](O)[C@@H](C)[C@@H](O)[C@@H](C)[C@H](OC(C)=O)[C@@H]1C | inactive: -12.1% | – |
| O=C(Nc1ccccc1C(=O)OCc1cc(=O)n2nc(C3CC3)sc2n1)c1cccc(Cl)c1 | inactive: -12.4% | – |
| Cc1cccc(NC(=O)CSc2cccc3cccnc23)c1 | – | inconclusive: 18.4 µM [inhibitor, single point] |
| Cc1cc(N2CCN(C)CC2)nc2ccc(NC(=O)CCC(=O)NCCCOC(C)C)cc12 | – | inconclusive: 5.8 µM [inhibitor, single point] |
| Cc1ccc(COc2ccc(/C=N/NC(=O)c3ccc(CN4CCOCC4)cc3)cc2)cc1 | – | inconclusive: 14.6 µM [inhibitor, partial curve, poor fit] |
| Cc1cnc(C(=O)NC2CC(C)(C)Cc3c2cnn3-c2ccccc2)cn1 (configuration not stated) | – | inconclusive: 20.6 µM [inhibitor, single point] |
| Cn1c(Cc2ccccc2)nnc1SCc1nc2ccccc2c(=O)[nH]1 | inactive: -14.4% | – |
| COc1cccc(C(=O)NC(=O)Nc2ccc(-c3cc(C(F)(F)F)nn3-c3ccccc3)cc2)c1 | – | inconclusive: 2.91 µM [inhibitor, partial curve] |
| O=C(COC(=O)/C=C/c1cccc(F)c1)NC(=O)NCc1ccccc1 | inconclusive: -30.1% [inhibitor] | – |
| CN1CCN(C2=C(Cl)C(=O)N(C3CCCCC3)C2=O)CC1 | – | inconclusive: 20.6 µM [inhibitor, single point] |

| Compound | activity change, negative = growth inhibition | Potency |
| --- | --- | --- |
| Cc1ccc(S(=O)(=O)N2CCCCC2)cc1NC(=O)Cn1cnc2c1c(=O)n(C)c(=O)n2C | inactive: -8.73% | – |
| CCOC(=O)C1=C(CN2CCN(c3ccccc3)CC2)NC(=O)NC1c1ccc(C)cc1 (configuration not stated) | – | inconclusive: 18.4 µM [inhibitor, single point] |
| COc1ccc(C2c3c(-c4ccccc4O)n[nH]c3C(=O)N2Cc2ccco2)cc1 (configuration not stated) | – | inactive and inconclusive: 20.6 µM [inhibitor, single point] |
| C/C(=N/NC(=O)c1sc(NS(=O)(=O)c2ccccc2)nc1C)c1ccc(F)cc1 | – | inconclusive: 20.6 µM [inhibitor, single point] |
| COC(=O)[C@]12CCCCC=C1N(Cc1ccc3c(c1)OCO3)C(=O)[C@H](CC(=O)N1CCC(c3ccccc3)CC1)C2 | – | active: 18.4 µM |
| COc1ccc(CCC(C)NCc2ccc(C(F)(F)F)cc2)cc1 (configuration not stated) | – | inconclusive: 29.1 µM [inhibitor, single point] |
| CCOC(=O)C1CCCN(C2=NC(=O)/C(=C/c3ccc(OC)cc3)S2)C1 (configuration not stated) | – | inconclusive: 25.9 µM [inhibitor, single point] |
| COc1cccc(/C=C2/Sc3ccc(C(=O)NCCN4CCCC4)cc3NC2=O)c1 | – | inconclusive: 29.1 µM [inhibitor, single point] |
| NC(=O)c1ccccc1NC(=O)/C=C/c1ccc(Cl)cc1 | – | active: 16.4 µM |
| CC(C)C[C@@H](CNCC(=O)[C@H](CC(=O)O)NC(=O)c1[nH]cnc1C(=O)N[C@H](CN)CC(C)C)NC(=O)c1nc[nH]c1C(=O)N[C@@H](C)C(=O)O | inactive: 3.52% | – |
| Cc1cccc(C(=O)N(c2ccccn2)C(C)c2ccco2)c1 (configuration not stated) | – | inconclusive: 29.1 µM [inhibitor, single point] |
| CCOC(=O)Nc1ccc2c(c1)N(C(=O)CN)c1ccccc1CC2 | – | inconclusive: 29.1 µM [inhibitor, single point] |
| Cc1[nH]c(C)c(S(=O)(=O)NCc2ccco2)c1C(=O)N1CCCCC1 | inactive: 7.21% | – |
| Cc1ccc(NC(=O)NCc2ccncc2)cc1Cl | inactive: -19% | – |
| C[C@@H]1CN([C@H](C)CO)C(=O)c2cc(Br)cnc2O[C@H]1CN(C)Cc1cccnc1 | inactive: -13.1% | – |
| Cc1ccc(NS(=O)(=O)c2ccc(OCC(=O)Nc3cccc([N+](=O)[O-])c3)c(C)c2)cc1 | – | inconclusive: 29.1 µM [inhibitor, single point] |
| CC(C)Oc1ccc(C(=O)/C(=C\c2cccs2)c2nc3ccccc3o2)cc1 | – | inconclusive: 29.1 µM [inhibitor, single point] |
| CC(C)CC(c1nnnn1Cc1ccco1)N1CCN(c2cccc(Cl)c2)CC1 (configuration not stated) | – | active: 16.4 µM |
| O=S(=O)(c1ccccc1)N1CCN(c2ncnc3scc(-c4ccccc4)c23)CC1 | – | inconclusive: 29.1 µM [inhibitor, single point] |
| O=C(Nc1cccc2ccccc12)N1CCc2ccccc2C1 | – | inconclusive: 16.4 µM [inhibitor, single point] |
| Cn1c(Nc2cccc(Cl)c2)nc2ccccc21 | – | inconclusive: 25.9 µM [inhibitor, single point] |
